Results on 2 molecules are retold here after article PMC5460031.

Amino acid sequences for entries named in this document (tags omitted). Residues count along the entry.
UniProt P46531, residues 19-2555: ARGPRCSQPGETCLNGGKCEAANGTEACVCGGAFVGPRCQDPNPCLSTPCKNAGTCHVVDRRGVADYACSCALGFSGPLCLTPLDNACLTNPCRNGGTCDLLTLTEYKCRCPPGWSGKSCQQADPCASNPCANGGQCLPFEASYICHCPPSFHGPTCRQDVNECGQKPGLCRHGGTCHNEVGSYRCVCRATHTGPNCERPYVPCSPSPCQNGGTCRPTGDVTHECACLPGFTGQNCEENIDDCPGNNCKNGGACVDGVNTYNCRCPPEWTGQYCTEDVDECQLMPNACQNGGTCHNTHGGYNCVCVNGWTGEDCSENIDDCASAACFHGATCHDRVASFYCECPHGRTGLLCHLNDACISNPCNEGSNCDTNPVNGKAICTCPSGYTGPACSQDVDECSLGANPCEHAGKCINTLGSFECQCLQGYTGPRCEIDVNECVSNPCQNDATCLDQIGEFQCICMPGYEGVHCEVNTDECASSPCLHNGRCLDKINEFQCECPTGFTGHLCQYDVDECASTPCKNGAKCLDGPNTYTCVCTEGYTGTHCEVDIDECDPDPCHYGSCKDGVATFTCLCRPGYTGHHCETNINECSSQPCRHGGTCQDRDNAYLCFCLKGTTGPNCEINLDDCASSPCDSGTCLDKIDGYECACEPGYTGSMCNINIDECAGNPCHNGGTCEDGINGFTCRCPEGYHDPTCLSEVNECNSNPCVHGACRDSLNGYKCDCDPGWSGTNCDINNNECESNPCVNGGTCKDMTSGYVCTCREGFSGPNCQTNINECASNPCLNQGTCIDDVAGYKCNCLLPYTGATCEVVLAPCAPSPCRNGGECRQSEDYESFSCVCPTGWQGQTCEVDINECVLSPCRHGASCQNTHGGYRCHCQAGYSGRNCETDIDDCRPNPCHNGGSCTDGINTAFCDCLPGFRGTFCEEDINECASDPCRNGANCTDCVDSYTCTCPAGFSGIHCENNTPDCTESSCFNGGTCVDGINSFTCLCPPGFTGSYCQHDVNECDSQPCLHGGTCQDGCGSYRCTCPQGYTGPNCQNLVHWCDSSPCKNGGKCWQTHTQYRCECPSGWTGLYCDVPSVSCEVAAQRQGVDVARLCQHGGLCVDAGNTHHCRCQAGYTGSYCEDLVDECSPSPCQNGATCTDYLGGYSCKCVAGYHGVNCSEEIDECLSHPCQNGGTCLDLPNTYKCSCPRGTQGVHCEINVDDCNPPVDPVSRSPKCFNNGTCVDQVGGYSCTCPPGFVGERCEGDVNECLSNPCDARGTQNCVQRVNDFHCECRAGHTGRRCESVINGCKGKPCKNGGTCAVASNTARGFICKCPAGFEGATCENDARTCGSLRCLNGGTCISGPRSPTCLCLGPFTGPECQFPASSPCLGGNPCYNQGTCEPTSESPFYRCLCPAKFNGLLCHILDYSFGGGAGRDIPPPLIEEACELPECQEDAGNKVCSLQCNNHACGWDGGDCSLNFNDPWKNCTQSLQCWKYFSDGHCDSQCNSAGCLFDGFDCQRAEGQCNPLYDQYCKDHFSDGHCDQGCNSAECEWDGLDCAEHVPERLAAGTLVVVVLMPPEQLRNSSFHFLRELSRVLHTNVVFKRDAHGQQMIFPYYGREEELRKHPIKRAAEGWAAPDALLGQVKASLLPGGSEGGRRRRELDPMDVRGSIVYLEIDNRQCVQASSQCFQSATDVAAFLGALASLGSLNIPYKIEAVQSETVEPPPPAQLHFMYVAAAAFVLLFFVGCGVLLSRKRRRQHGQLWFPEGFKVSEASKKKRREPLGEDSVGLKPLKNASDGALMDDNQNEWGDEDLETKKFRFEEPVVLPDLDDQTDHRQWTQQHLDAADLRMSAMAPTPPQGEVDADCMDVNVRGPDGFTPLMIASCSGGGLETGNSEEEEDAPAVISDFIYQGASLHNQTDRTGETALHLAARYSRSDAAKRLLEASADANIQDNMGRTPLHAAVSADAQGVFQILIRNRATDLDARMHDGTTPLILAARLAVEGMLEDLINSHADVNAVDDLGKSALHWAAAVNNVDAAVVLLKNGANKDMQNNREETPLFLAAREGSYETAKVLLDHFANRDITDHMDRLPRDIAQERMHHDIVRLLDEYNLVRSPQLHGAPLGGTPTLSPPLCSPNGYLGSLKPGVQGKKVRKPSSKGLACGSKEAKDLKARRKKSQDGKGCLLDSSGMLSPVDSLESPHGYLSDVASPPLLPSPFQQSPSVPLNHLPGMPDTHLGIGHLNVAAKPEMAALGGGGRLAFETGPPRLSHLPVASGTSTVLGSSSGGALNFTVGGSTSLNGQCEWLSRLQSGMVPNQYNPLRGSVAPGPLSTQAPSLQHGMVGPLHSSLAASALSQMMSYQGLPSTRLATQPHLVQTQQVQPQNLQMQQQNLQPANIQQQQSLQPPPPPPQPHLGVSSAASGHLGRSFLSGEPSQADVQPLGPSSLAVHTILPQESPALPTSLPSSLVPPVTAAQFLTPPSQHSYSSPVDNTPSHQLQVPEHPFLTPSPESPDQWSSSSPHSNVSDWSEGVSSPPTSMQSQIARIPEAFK
UniProt Q01705, residues 19-2531: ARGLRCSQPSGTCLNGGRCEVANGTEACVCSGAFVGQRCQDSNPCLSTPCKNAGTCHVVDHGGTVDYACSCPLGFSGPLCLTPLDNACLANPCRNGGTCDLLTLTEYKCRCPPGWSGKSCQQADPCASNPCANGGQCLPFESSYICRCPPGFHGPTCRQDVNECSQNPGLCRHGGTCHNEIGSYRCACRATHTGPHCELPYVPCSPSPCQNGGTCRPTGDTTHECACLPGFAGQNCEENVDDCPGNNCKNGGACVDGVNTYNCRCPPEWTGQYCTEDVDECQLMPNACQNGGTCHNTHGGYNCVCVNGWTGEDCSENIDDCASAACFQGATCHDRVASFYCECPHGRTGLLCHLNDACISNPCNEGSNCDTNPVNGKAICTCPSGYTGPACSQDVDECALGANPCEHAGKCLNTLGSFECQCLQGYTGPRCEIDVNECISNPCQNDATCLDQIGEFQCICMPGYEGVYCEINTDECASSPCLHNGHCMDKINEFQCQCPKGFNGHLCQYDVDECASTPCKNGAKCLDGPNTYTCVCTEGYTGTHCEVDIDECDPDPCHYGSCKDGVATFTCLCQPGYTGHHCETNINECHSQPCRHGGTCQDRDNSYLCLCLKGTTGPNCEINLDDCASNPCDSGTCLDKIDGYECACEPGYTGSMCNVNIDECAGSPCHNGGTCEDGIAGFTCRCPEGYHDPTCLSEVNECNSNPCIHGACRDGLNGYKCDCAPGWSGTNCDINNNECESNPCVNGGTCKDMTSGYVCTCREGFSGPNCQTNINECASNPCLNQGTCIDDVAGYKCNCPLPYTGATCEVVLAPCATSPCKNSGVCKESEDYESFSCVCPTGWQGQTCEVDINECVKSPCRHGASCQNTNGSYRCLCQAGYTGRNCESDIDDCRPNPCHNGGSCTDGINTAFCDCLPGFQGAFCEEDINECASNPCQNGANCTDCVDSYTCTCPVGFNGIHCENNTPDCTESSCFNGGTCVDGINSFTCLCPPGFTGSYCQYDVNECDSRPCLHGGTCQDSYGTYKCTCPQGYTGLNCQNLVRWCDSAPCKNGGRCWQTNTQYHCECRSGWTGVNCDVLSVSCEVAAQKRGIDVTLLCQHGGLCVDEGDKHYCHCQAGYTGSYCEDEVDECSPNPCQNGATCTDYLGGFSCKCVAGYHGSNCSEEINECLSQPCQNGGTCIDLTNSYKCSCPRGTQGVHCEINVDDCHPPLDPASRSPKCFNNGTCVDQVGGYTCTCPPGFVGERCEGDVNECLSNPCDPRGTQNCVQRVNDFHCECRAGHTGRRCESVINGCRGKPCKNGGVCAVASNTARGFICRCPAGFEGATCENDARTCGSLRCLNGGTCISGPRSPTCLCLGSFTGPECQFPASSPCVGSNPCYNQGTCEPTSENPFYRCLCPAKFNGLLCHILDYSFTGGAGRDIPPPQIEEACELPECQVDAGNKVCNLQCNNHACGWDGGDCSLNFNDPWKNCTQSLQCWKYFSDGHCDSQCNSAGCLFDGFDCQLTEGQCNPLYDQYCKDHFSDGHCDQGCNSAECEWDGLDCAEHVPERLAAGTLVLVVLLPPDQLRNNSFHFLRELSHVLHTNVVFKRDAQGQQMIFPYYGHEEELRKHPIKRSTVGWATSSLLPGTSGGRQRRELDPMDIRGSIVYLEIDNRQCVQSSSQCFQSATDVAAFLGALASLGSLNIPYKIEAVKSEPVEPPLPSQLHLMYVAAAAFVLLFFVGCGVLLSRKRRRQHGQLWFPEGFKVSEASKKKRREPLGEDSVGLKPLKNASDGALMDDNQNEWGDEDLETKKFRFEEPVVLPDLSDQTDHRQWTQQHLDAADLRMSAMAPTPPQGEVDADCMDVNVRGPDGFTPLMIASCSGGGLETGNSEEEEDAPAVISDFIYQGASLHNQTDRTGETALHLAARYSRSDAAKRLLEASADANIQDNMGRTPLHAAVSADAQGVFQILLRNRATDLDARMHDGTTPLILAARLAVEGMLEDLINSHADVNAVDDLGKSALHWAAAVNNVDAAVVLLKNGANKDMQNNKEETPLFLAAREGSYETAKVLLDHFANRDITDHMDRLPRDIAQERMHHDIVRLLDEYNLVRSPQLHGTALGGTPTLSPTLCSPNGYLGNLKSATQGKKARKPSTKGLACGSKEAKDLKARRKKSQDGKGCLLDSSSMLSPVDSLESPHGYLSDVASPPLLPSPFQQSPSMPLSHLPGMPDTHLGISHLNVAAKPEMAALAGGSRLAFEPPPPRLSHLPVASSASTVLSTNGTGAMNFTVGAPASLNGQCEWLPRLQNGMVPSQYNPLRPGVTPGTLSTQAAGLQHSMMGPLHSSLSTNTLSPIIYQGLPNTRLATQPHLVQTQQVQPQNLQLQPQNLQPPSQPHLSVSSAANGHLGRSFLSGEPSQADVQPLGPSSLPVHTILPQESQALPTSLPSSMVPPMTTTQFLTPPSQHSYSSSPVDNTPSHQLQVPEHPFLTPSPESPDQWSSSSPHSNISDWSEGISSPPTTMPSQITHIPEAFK

Results are given in words; binding and its absence hold for the method and conditions named. For part of these data: In cells and extracts the contact can be indirect. Some results given as binding are weak or reduced against the parent protein; the word gives no strength.

The target of assay [1] is FLAG-NOTCH1 (human) (UniProt P46531). Nature of the assay: co-IP; same experiment as a6: synthetic IL-17RA decoy peptide (100 or 200 μM) added to transfected HEK293 cells as competitor; only the binder purified.
Assay [2] has as its target NOTCH1 (endogenous, mouse OPCs) (mouse (endogenous in OPCs)) (UniProt Q01705). Nature of the assay: flow cytometry on cells; wild-type and NOTCH1 KO OPCs incubated with FITC-labelled IL-17RA decoy peptide (200 μM), then stained with PE-labelled anti-NOTCH1 antibody; only the binder purified. In general terms: In flow cytometry, cells or beads pass a laser one at a time.
Assay [3] has as its target T1, Act1 (endogenous, mouse OPCs) (mouse (endogenous in OPCs)) (UniProt Q8N7N6).
T1 sequence: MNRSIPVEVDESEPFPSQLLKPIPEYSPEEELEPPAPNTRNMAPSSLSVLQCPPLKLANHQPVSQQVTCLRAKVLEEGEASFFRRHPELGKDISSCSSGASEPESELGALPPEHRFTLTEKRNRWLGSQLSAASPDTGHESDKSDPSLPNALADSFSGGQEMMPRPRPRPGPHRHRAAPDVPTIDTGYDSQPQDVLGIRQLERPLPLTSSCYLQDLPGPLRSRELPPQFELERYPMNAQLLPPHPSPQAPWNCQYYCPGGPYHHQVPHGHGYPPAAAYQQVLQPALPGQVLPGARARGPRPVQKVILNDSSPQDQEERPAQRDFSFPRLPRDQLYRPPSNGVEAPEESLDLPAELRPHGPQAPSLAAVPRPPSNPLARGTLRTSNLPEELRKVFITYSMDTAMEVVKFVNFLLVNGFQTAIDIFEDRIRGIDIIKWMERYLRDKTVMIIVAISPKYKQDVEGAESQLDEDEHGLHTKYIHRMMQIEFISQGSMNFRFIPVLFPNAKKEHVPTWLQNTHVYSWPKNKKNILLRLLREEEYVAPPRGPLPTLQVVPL
Nature of the assay: co-IP; wild-type mouse OPCs co-cultured with Act1 KO astrocytes, stimulated with IL-17 (50 ng ml^−1) for the indicated times; lysates immunoprecipitated with anti-Act1 antibody; immunoblot. In general terms: In western blotting, separated proteins are transferred to a membrane and probed.

On to VQVQPFFSSCLNDCLRHAVTVPCPVISNTTVPKPVADYIP (fluorescein isothiocyanate (FITC) tag at its C terminus) [IL-17RA decoy peptide], for which the binding result in assay [1] and in assay [2] was “binds” each time.

B1: IL-17RA (endogenous, mouse OPC-astrocyte co-culture) (receptor, UniProt Q60943 32-864)
chain: SPRLLDFPAPVCAQEGLSCRVKNSTCLDDSWIHPKNLTPSSPKNIYINLSVSSTQHGELVPVLHVEWTLQTDASILYLEGAELSVLQLNTNERLCVKFQFLSMLQHHRKRWRFSFSHFVVDPGQEYEVTVHHLPKPIPDGDPNHKSKIIFVPDCEDSKMKMTTSCVSSGSLWDPNITVETLDTQHLRVDFTLWNESTPYQVLLESFSDSENHSCFDVVKQIFAPRQEEFHQRANVTFTLSKFHWCCHHHVQVQPFFSSCLNDCLRHAVTVPCPVISNTTVPKPVADYIPLWVYGLITLIAILLVGSVIVLIICMTWRLSGADQEKHGDDSKINGILPVADLTPPPLRPRKVWIVYSADHPLYVEVVLKFAQFLITACGTEVALDLLEEQVISEVGVMTWVSRQKQEMVESNSKIIILCSRGTQAKWKAILGWAEPAVQLRCDHWKPAGDLFTAAMNMILPDFKRPACFGTYVVCYFSGICSERDVPDLFNITSRYPLMDRFEEVYFRIQDLEMFEPGRMHHVRELTGDNYLQSPSGRQLKEAVLRFQEWQTQCPDWFERENLCLADGQDLPSLDEEVFEDPLLPPGGGIVKQQPLVRELPSDGCLVVDVCVSEEESRMAKLDPQLWPQRELVAHTLQSMVLPAEQVPAAHVVEPLHLPDGSGAAAQLPMTEDSEACPLLGVQRNSILCLPVDSDDLPLCSTPMMSPDHLQGDAREQLESLMLSVLQQSLSGQPLESWPRPEVVLEGCTPSEEEQRQSVQSDQGYISRSSPQPPEWLTEEEELELGEPVESLSPEELRSLRKLQRQLFFWELEKNPGWNSLEPRRPTPEEQNPS
As to B1, the binding entry in assay [3] is recorded as “binds”.
